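Five concentrations, 48 hours, 96-well plates. GI50 marks 50% less growth.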 The source made the active and inactive calls. Rule as the data show it: active = GI50 up to about 1.1 µM and inactive = higher.
The compounds below were run on NCI-H322M (assay: inhibition of tumour cell growth, NCI panel, 48 h).

| SMILES | GI50 |
| --- | --- |
| OC(c1cc2ccc(C(F)(F)F)cc2c2cc(C(F)(F)F)ccc12)C1CCCCN1 (stereo not given) | inactive: 2.01 µM |
| Cc1[nH]c(=O)nc(S)c1C(=O)Nc1cccc2cc3ccccc3cc12 | inactive: > 100 µM |
| O=C1c2ccccc2C(=O)c2c1oc(=O)c1ccccc21 | inactive: 6.81 µM |
| COC(=O)C1=C(O)C(C(=O)OC)[C@]2(O)[C@@H](C(=O)OC)[C@H]1[C@H](C)[C@@H](c1ccccc1)[C@@H]2C(=O)OC (stereo not given in full) | inactive: > 100 µM |
| CSc1nc2nccnc2c(=O)[nH]1 | inactive: 38.2 µM |
| CCN(CC)CCN1C(=O)c2cccc3cc(N)cc(c23)C1=O | inactive: 4.95 µM |
| COc1cc2c(cc1OC)[C@H]1CN3CCC[C@H]3C=C1c1ccc(OC)c(O)c1-2 | active: 0.000518 µM |
| COc1cc2c(cc1OC)C(C)N(C)c1c-2c(OC(C)=O)cc2cc(OC)c(OC)cc12 (stereo not given) | inactive: 20.3 µM |
| CC(=O)OCC1OC(n2cc(I)c(=O)[nH]c2=O)C(OC(C)=O)C(OC(C)=O)C1OC(C)=O (stereo not given) | inactive: > 100 µM |
| COc1ccc(/C=C/C(=O)c2c(-c3ccccc3)nn(C)c(=O)c2N2CC2C)cc1 (stereo not given) | inactive: 34.4 µM |
| CCOC(=O)Cc1c(Cc2[nH]c(C(=O)OCc3ccccc3)c(CC(=O)OCC)c2CC(=O)OCC)[nH]c(C(=O)OCc2ccccc2)c1CC(=O)OCC | inactive: > 100 µM |
| CCC1(CC)C(=O)NN(C(=O)c2ccc(Cl)cc2)C1=O | inactive: > 100 µM |
| CCc1nnc(S)n1/N=C\c1ccc(-c2ccccc2[N+](=O)[O-])o1 | inactive: > 100 µM |
| CN(C)Cc1cc(C(C)(C)C)ccc1-c1ccc(C(C)(C)C)cc1CN(C)C | inactive: > 100 µM |
| NCC(=O)OCN1C(=O)C2C3C=CC(C2C1=O)C1C2C(=O)N(COC(=O)CN)C(=O)C2C31 (stereo not given) | inactive: 73.3 µM |
| Cc1cn(C2OC(C)(CO)C(O)C2O)c(=O)[nH]c1=O (stereo not given) | inactive: > 100 µM |
| CCN(CC(O)COc1ccc2c(c1)[n+]([O-])nc(N)[n+]2[O-])C(C)=O (stereo not given) | inactive: > 100 µM |
| COc1ccc(/C=C/c2ccnc3ccccc23)c(OC)c1 | inactive: > 10 µM |

| SMILES | GI50 |
| --- | --- |
| C[C@@H]1CCC[C@]2(C)O[C@H]2CC[C@@](C)(O)[C@@H]2CC3=C(CO)C(=O)O[C@H]3[C@H]1O2 | inactive: > 50 µM |
| O=C(C1OC1c1cccc([N+](=O)[O-])c1)C12CC3CC(CC(C3)C1)C2 (stereo not given) | inactive: 9.73 µM |
| CCOC(=O)C(C(=O)OCC)=C1SC(=N\c2ccccc2)/C(=N/c2ccccc2)N1c1ccccc1 | inactive: 65.9 µM |
| CCN(CC)c1nc(N(C)C)c2ccccc2n1 | inactive: 23.9 µM |
| CCOC(=O)c1[nH]c2cccc3c2c1CC[C@H](NC(=O)C(F)(F)F)C3=O | inactive: 24.5 µM |
| O=C1/C(=C/c2ccc(O)cc2)CCC1CNc1ccc(Cl)cc1 (stereo not given) | inactive: 11.6 µM |
| COC(=O)C1CCC(=O)N1CN(C(C)=O)c1ccccc1 (stereo not given) | inactive: > 100 µM |
| CCCCOC(=O)CNC(=O)OC/C=C/C#CC#C/C=C/COC(=O)NCC(=O)OCCCC | inactive: > 10 µM |
| CC(C)Oc1cccc(N2C(CCc3c[nH]c4ccc(Br)cc34)=NS(=O)(=O)c3cnccc32)c1 | inactive: > 100 µM |
| CC1(C)C=[N+]([O-])C(C)(C)N1O | inactive: > 10 µM |
| CC1=NN=C(N)NC1=CC(Sc1ccc(Cl)cc1)c1c(O)ccc2ccccc12 (stereo not given) | inactive: 20.3 µM |
| O=C1NC2=C(CCCCC/C2=N\O)C12CCCCCC2 | inactive: > 100 µM |
| CC1(C)C(O)C[C@@H](O)[C@@]2(C)C1CC[C@]1(C)C2C[C@@H](O)[C@@H]2C([C@@]3(C)CC[C@@H](C(C)(C)O)O3)CCC21C (stereo not given in full) | inactive: 19.9 µM |
| N#C/C(=C1/c2cc([N+](=O)[O-])ccc2-c2c1cc([N+](=O)[O-])cc2[N+](=O)[O-])N1CCCCC1 | inactive: > 100 µM |
| CN1C(=O)CNS1(=O)=O | inactive: > 100 µM |
| CCCCCCCCCCCCCP(=O)(O)NCC(N)=O | inactive: > 100 µM |
| Clc1ccc(C2NN=C3c4ccccc4OCC32)cc1 (stereo not given) | inactive: 6.05 µM |

— ChEMBL document CHEMBL1201862, “PubChem BioAssay data set” (2004)
